Experimental data taken from the supplement of paper PMC4967469.
pIC50: −log10 of the molar value. Lines with a small IC50 respond at low doses; fits outside the tested doses are given as limits. For AUC the same curve is integrated over the 256-fold range of doses and scaled to a fraction; the more sensitive the line, the further below 1. For some assays here: A top dose marked as inferred is not printed in the source and was worked back from the curve model. For some assays here: Where an entry number is given, a second screen of the drug exists; the two often differ.

Columns and labels:
Experiment in all cases: Viability of human cancer cell lines after 72 h of drug (GDSC screen)
[1] = compound: O=S(=O)(O)c1ccc2cc(N=Nc3cc(S(=O)(=O)O)c4cccnc4c3O)ccc2c1 [NSC-87877]; settings: top dose 16 µM; top dose inferred
Method: (§1)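 Human cancer cell lines in 384-well plates, medium with 10% serum, drug for 72 h over a 256-fold dose range (nine 2-fold or five 4-fold steps up to the top dose). Adherent lines were fixed and stained with the nucleic acid dye Syto60, suspension lines read with resazurin; signal relative to control wells, capped at 0 and 100%. One two-parameter sigmoid per drug and line, fitted in a mixed model over all curves with the slope shared within a line.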

[2] = compound: O=C(/C=C/c1ccc(CN(CCO)CCc2c[nH]c3ccccc23)cc1)NO [LAQ824]; settings: top dose 1.024 µM; top dose inferred
Method: as §1

[3] = compound: CCCC(=O)OCc1ccc(OC(=O)/C=C(C)/C=C/C=C(C)/C=C/C2=C(C)CCCC2(C)C)cc1 [VNLG/124]; settings: top dose 5.12 µM; top dose inferred
Method: as §1

[4] = compound: O=C(Nc1ccc(OC(F)(F)F)cc1)c1sccc1NCc1ccnc2ccccc12 [OSI-930]; settings: top dose 10.24 µM
Method: as §1

[5] = compound: O=C(Nc1cccc(Nc2ncc(Br)c(NCCc3cnc[nH]3)n2)c1)N1CCCC1 [BX-912]; settings: top dose 10.24 µM; top dose inferred
Method: as §1

[6] = compound: CN(NC(=O)CC(=O)NN(C)C(=S)c1ccccc1)C(=S)c1ccccc1 [Elesclomol]; settings: top dose 0.2 µM; top dose inferred
Method: as §1

[7] = compound: Cc1ccc(NC(=O)c2ccc(CN3CCN(C)CC3)cc2)cc1Nc1nc(-c2cccnc2)cs1 [Masitinib]; settings: top dose 20 µM
Method: as §1

[8] = compound: Cc1c(N)nc([C@H](CC(N)=O)NC[C@H](N)C(N)=O)nc1C(=O)N[C@H](C(=O)N[C@H](C)[C@@H](O)[C@H](C)C(=O)N[C@H](C(=O)NCCc1nc(-c2nc(C(=O)NCCC[S+](C)C)cs2)cs1)[C@@H](C)O)[C@@H](OC1OC(CO)C(O)C(O)C1OC1OC(CO)C(O)C(OC(N)=O)C1O)c1cnc[nH]1 [Bleomycin]
Method: as §1

[9] = top dose 50 µM, screen: GDSC drug entry 1378, top dose inferred
[10] = top dose 64 µM, screen: GDSC drug entry 190

Cell Line	AUC [1]	pIC50 [1]	AUC [2]	pIC50 [2]	AUC [3]	pIC50 [3]	AUC [4]	pIC50 [4]	AUC [5]	pIC50 [5]	AUC [6]	pIC50 [6]	AUC [7]	pIC50 [7]	AUC [8, 9]	pIC50 [8, 9]	AUC [8, 10]	pIC50 [8, 10]
CAL-120 (breast, adherent)	0.905	< 4.80	0.55	7.04	0.968	< 5.29	0.951	< 4.99	0.853	< 4.99	0.532	7.80	0.979	< 4.70	0.613	5.15	0.531	5.30
HT (B-cell lymphoma, suspension)	0.987	< 4.80	0.412	7.42	0.962	< 5.29	0.951	< 4.99	0.947	< 4.99	0.815	7.01	0.87	4.79	0.87	4.40	0.556	5.25
A431 (skin, adherent)	0.967	< 4.80	0.361	7.57	0.979	< 5.29	0.884	< 4.99	0.786	5.37	0.764	7.16	0.875	4.74	0.32	6.00	0.33	5.86
SW954 (urogenital system, adherent)	0.916	< 4.80	0.282	7.82	0.969	< 5.29	0.956	< 4.99	0.493	6.21	0.556	7.75	0.874	4.70	0.141	6.63	0.072	> 6.60
Ca-Ski (cervix, adherent)	0.981	< 4.80	0.456	7.32	0.981	< 5.29	0.895	< 4.99	0.698	5.61	0.578	7.68	0.791	4.99	0.346	5.95	0.313	5.95
NCI-H647 (non-small cell lung carcinoma, adherent)	0.985	< 4.80	0.62	6.86	0.965	< 5.29	0.951	< 4.99	0.794	5.30	0.71	7.30	0.79	5.03	0.139	6.67	0.497	5.41
MOLT-4 (lymphoblastic leukaemia, suspension)	0.992	< 4.80	0.287	7.74	0.943	< 5.29	0.963	< 4.99	0.429	6.37	0.604	7.64	0.874	4.87	0.401	5.75	0.284	5.95
CAL-85-1 (breast, adherent)	0.828	4.85	0.266	7.95	0.981	< 5.29	0.906	< 4.99	0.891	< 4.99	0.757	7.06	0.863	< 4.70	0.913	< 4.30	0.038	> 6.60
NCI-H23 (lung adenocarcinoma, adherent)	0.986	< 4.80	0.635	6.82	0.987	< 5.29	0.958	< 4.99	0.988	< 4.99	0.488	7.94	0.892	< 4.70	0.108	> 6.71	0.466	5.49
SAT (head and neck, adherent)	0.914	< 4.80	0.574	6.94	0.936	< 5.29	0.975	< 4.99	0.928	< 4.99	0.849	< 6.70	0.975	< 4.70	0.652	4.98	0.864	< 4.19
LN-18 (glioma, adherent)	0.966	< 4.80	0.64	6.84	0.993	< 5.29	0.99	< 4.99	0.969	< 4.99	0.58	7.71	0.957	< 4.70	0.135	6.50	0.035	> 6.60
KOPN-8 (B-cell leukaemia, suspension)	0.99	< 4.80	0.332	7.63	0.971	< 5.29	0.88	5.10	0.374	6.52	0.463	8.00	0.714	5.34	0.633	5.16	0.388	5.68
SF539 (glioma, adherent)	0.988	< 4.80	0.505	7.18	0.899	< 5.29	0.986	< 4.99	0.874	5.08	0.61	7.62	0.87	4.81	0.309	6.01	0.212	6.20
MDA-MB-361 (breast, adherent)	0.959	< 4.80	0.343	7.63	0.988	< 5.29	0.967	< 4.99	0.988	< 4.99	0.532	7.82	0.948	< 4.70	0.962	< 4.30	0.111	> 6.60
KMS-12-BM (myeloma, suspension)	0.989	< 4.80	0.262	7.81	0.977	< 5.29	0.901	5.04	0.83	5.30	0.465	7.99	0.795	5.12	–	–	0.866	4.38
MG-63 (osteosarcoma, adherent)	0.956	< 4.80	0.443	7.36	0.981	< 5.29	0.983	< 4.99	0.984	< 4.99	0.946	< 6.70	0.984	< 4.70	0.656	5.04	0.355	5.83
DU-145 (prostate, adherent)	0.984	< 4.80	0.414	7.44	0.973	< 5.29	0.961	< 4.99	0.984	< 4.99	0.884	< 6.70	0.978	< 4.70	0.708	4.88	0.279	6.06
NCI-H1734 (lung adenocarcinoma, adherent)	0.985	< 4.80	0.536	7.09	0.983	< 5.29	0.979	< 4.99	0.905	< 4.99	0.705	7.30	0.916	< 4.70	–	–	0.114	> 6.60
HT-1080 (fibrosarcoma, adherent)	0.971	< 4.80	0.538	7.10	0.989	< 5.29	0.972	< 4.99	0.97	< 4.99	0.361	8.27	0.937	< 4.70	0.143	6.54	0.196	6.25
C-33-A (cervix, adherent)	0.953	< 4.80	0.413	7.43	0.979	< 5.29	0.964	< 4.99	0.954	< 4.99	0.41	8.15	0.893	< 4.70	0.258	6.20	0.219	6.22
BxPC-3 (pancreas, adherent)	0.982	< 4.80	0.399	7.49	0.976	< 5.29	0.983	< 4.99	0.913	< 4.99	0.784	7.02	0.854	4.72	0.617	5.17	0.505	5.38
NCI-H64 (small cell lung carcinoma, suspension)	0.989	< 4.80	0.334	7.60	0.995	< 5.29	0.992	< 4.99	0.952	< 4.99	0.977	< 6.70	0.911	4.82	–	–	0.162	6.25
CAL-51 (breast, adherent)	0.786	5.23	0.497	7.20	0.99	< 5.29	0.939	< 4.99	0.968	< 4.99	0.201	8.72	0.974	< 4.70	0.103	6.69	0.02	> 6.60
MHH-NB-11 (neuroblastoma, adherent)	0.985	< 4.80	0.851	6.04	0.985	< 5.29	0.972	< 4.99	0.584	5.95	0.686	7.36	0.881	< 4.70	–	–	0.411	5.65
MY-M12 (leukaemia, suspension)	0.978	< 4.80	0.237	8.01	0.973	< 5.29	0.977	< 4.99	0.489	6.22	0.777	7.04	0.858	4.70	–	–	0.502	5.39
MDA-MB-453 (breast, adherent)	0.984	< 4.80	0.458	7.31	0.986	< 5.29	0.862	< 4.99	0.853	5.02	0.624	7.55	0.864	< 4.70	0.926	< 4.30	0.661	4.93
DJM-1 (skin, adherent)	0.989	< 4.80	0.705	6.62	0.988	< 5.29	0.963	< 4.99	0.982	< 4.99	0.665	7.45	0.977	< 4.70	0.442	5.66	0.333	5.86
MOLM-13 (acute myeloid leukaemia, suspension)	0.982	< 4.80	0.307	7.72	0.684	6.00	0.588	5.96	0.029	> 7.40	0.983	< 6.70	0.656	5.48	0.561	5.34	0.692	4.88
HCC1143 (breast, adherent)	0.926	< 4.80	0.438	7.39	0.979	< 5.29	0.966	< 4.99	0.949	< 4.99	0.74	7.09	0.891	< 4.70	0.795	4.46	0.68	4.81
C3A (liver, adherent)	0.916	< 4.80	0.415	7.43	0.978	< 5.29	0.982	< 4.99	0.988	< 4.99	0.97	< 6.70	0.983	< 4.70	0.811	4.56	0.275	6.05
